Test results reported in article PMC7879653, “PSF functions as a repressor of hypoxia-induced angiogenesis by promoting mitochondrial function” (Cell Communication and Signaling : CCS, 2021).

Biological target: T1, PSF (polypyrimidine tract-binding protein-associated splicing factor), endogenous (human (endogenous in HRMECs), UniProt P23246 1-707)
T1 construct: PSF, endogenous in human retinal microcapillary endothelial cells (HRMECs); source: endogenous, HRMEC total cell lysate or nuclear lysate
T1 sequence (looked up): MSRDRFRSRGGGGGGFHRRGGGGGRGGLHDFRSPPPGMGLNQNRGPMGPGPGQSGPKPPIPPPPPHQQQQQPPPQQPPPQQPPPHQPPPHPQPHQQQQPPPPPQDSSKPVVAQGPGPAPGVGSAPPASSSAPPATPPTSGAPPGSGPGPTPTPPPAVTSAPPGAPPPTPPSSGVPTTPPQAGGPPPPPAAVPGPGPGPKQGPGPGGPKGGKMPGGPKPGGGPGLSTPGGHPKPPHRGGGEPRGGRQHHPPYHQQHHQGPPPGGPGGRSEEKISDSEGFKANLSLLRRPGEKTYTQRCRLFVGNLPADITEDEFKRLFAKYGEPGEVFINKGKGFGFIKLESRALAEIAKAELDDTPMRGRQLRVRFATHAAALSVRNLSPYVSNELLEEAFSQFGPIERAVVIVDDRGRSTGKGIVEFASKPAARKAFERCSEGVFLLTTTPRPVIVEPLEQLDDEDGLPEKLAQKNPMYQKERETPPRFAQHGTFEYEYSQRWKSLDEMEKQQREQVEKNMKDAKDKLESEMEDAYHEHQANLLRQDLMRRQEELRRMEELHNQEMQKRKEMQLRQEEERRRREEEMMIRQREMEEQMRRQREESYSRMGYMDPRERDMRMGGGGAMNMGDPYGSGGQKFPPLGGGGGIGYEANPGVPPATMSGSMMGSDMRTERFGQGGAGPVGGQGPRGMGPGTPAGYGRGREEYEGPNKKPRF
Assay: co-IP; endogenous proteins; HRMECs exposed to hypoxia (3 h, or a time course of 30 to 150 min); RIPA lysis; total cell lysates precipitated with anti-PSF antibody and protein G/A-Sepharose; blot with anti-HIF-1α, anti-PSF or anti-Hakai; cells untreated or transfected with scrambled siRNA, PSF siRNA or pcDNA-His-PSF
Conditions: partners not purified

- fold of precipitated HIF-1α against the vehicle group (90 min hypoxia): ~4 fold
B1: HIF-1α (hypoxia-inducible factor-1 alpha), endogenous (natural protein)
chain: not shown
notes: HIF-1α, endogenous in human retinal microcapillary endothelial cells (HRMECs); source: endogenous, HRMEC total cell lysate or nuclear lysate
